Measured values reported in PubChem BioAssay AID687022 (Broad Institute, 2013).
Out of some 1,000 compounds screened, about 360 (36%) were called active.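 Rule for the calls: active = Fitted curve of melting temperature shift crosses the 1.0 threshold at or below the sample's highest valid tested concentration; inconclusive = Flat fit with activity 30 to 70, or invalid fit; inactive = Opposite direction, flat within 30, or no crossing.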 This part holds few or none of the hits.

Biological target: Fibroblast growth factor 22 (Homo sapiens) (UniProt Q9HCT0)
UniProt Q9HCT0, sequence (Q9HCT0 whole entry, looked up): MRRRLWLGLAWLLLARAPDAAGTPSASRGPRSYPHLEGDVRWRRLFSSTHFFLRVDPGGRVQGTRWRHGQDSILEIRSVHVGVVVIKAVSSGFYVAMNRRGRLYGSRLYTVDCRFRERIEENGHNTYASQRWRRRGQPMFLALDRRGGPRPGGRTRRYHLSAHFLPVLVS
Assay: FGF22 ligand-induced thermal stabilization – biophysical, thermal shift, cherry-pick, FGF22 synaptogenesis inhibitor project, dose response (AID 687022); note: reference of the scale not given here
Conditions: recombinant FGF22 thermal shift, SYPRO orange melting; at 38 µM (top of the series) unless noted

| SMILES | Tm shift activity |
| --- | --- |
| COc1ccc(C(=O)C2CCCN(C(=O)c3cc(C(C)C)no3)C2)cc1F (configuration not stated) | inactive: -0.204% |
| O=S(=O)(/N=C(/Nc1nccs1)c1ccc(F)cc1)c1ccccc1 | inactive: 0.04% |
| Cc1ccc(S(=O)(=O)N(C)C[C@@H]2Oc3cc(C4=CCCC4)ccc3S(=O)(=O)N([C@@H](C)CO)C[C@@H]2C)cc1 | inactive: -0.131% [at 42 µM] |
| O=C(Nc1cccc(F)c1)N1C[C@@H]2[C@H](c3ccccc31)[C@H](CO)N2C(=O)c1cccnc1 | inactive: 0.485% [at 42 µM] |
| Cc1cc(C)c(C)c(S(=O)(=O)Nc2ccccc2C(=O)O)c1C | inactive: 0.641% [at 5 µM] |
| NNC(=O)CN1C(=O)C2(OCCO2)c2ccccc21 | inactive: -0.218% |
| O=C(N[C@@H]1C=C[C@H](CC(=O)N2CCCCC2)O[C@@H]1CO)c1cccc(F)c1 | inactive: 0.107% |
| CCOC(=O)C1(C)CCCN(C(=O)c2cccc(C#N)c2)C1 (configuration not stated) | inactive: -0.156% |
| O=C(NCCc1ccc2c(c1)OCCO2)c1cccc(F)c1 | inactive: -0.125% |
| C[C@@H]1CCCCO[C@H](CN(C)C(=O)C2CCCCC2)[C@H](C)CN([C@H](C)CO)C(=O)c2cc(NS(C)(=O)=O)ccc2O1 | inactive: -0.034% |
| CN(Cc1ccccc1)C(=O)c1[nH]cnc1C(=O)NC1CCN(C(=O)OC(C)(C)C)CC1 | inactive: -0.131% |
| CC(=O)c1ccc(S(=O)(=O)N2CCN(CC(=O)Nc3ccc(Cl)c([N+](=O)[O-])c3)CC2)cc1 | inactive: 0.023% |
| CC1C(=O)Nc2ccc(S(=O)(=O)NCCc3ccc(Cl)cc3)cc2NC1=O (configuration not stated) | inactive: -0.037% |
| NS(=O)(=O)c1ccc2c(c1)C(=NO)c1cc(S(N)(=O)=O)ccc1-2 | inactive: 0.643% |
| C[C@H]1CN([C@@H](C)CO)S(=O)(=O)c2ccc(/C=C/c3ccccc3)cc2O[C@@H]1CN(C)Cc1ccc(C(=O)O)cc1 | inactive: -0.154% [at 42 µM] |
| O=C(Nc1cccc2ccccc12)c1cccc([N+](=O)[O-])c1 | inactive: 0.033% |
| CCOCCCNS(=O)(=O)c1ccc(NC(=O)c2ccccc2)cc1 | inactive: 0.014% |
| C/C=C/c1ccc2c(c1)O[C@@H](CN(C)Cc1ccncc1)[C@@H](C)CN([C@@H](C)CO)S2(=O)=O | inactive: -0.079% [at 42 µM] |
| COc1cccc(NC(=O)CN2CCN(S(=O)(=O)c3ccc(F)cc3)CC2)c1 | inactive: -0.156% |
| O=C(Nc1ccc2c(c1)OCO2)c1cnn2cccnc12 | inactive: -0.154% |
| C[C@H]1CN([C@@H](C)CO)C(=O)c2cc(NS(=O)(=O)c3ccccc3)ccc2O[C@@H]1CN(C)Cc1ccc(C(=O)O)cc1 | inactive: -0.154% |
| Cc1cccc(C(=O)NNC(=O)c2ccc(NS(=O)(=O)c3cccs3)cc2)c1C | inactive: -0.21% |
| CCC(C)N(C(=O)COc1ccc(-c2nnco2)cc1)C1CCS(=O)(=O)C1 (configuration not stated) | inactive: -0.201% |
| CN(C(=O)Cn1nnc2ccccc2c1=O)C1CCCCC1 | inactive: -0.128% |

| SMILES | Tm shift activity |
| --- | --- |
| O=C(C1CC1)N1[C@H](CO)[C@H]2c3ccccc3N(S(=O)(=O)c3ccccc3)C[C@H]21 | inactive: -0.233% |
| COCCNC(=O)[C@H]1[C@H](CO)[C@H]2Cn3c(ccc(-c4ccc(F)cc4)c3=O)[C@@H]1N2C(=O)NC(C)C | inactive: 0.158% [at 42 µM] |
| COc1cccc(NC(=O)N[C@@H]2CC[C@@H](CC(=O)Nc3ccccc3)O[C@H]2CO)c1 | inactive: 0.248% |
| O=C(NCC[C@@H]1CC[C@@H](NS(=O)(=O)c2ccccc2)[C@@H](CO)O1)c1ccc2c(c1)OCO2 | inactive: -1.36% [at 42 µM] |
| Cc1c2c(n3c(nc4ccccc43)c1C#N)N(CCN(C)C)CC2 | inactive: -0.163% |
| CCCn1c(=O)[nH]c(=O)c2c1nc(-c1cccs1)n2CCOC | inactive: 0.093% |
| CCCNC(=O)Nc1ccc2c(c1)C(=O)N(C)C[C@H](OC)[C@@H](C)CN(C(=O)c1ccccc1F)[C@H](C)CO2 | inactive: 0.294% |
| COc1cccc(S(=O)(=O)Nc2ccc3c(c2)[C@@H]2C[C@H](CC(=O)NC4CCCCC4)O[C@@H](CO)[C@@H]2O3)c1 | inactive: -0.228% |
| CNC[C@@H]1Oc2ccc(NC(=O)C3CCCCC3)cc2C(=O)N([C@@H](C)CO)C[C@H]1C | inactive: -0.131% |
| COCC(=O)N(C)C[C@@H]1Oc2cc(C#C[C@H](C)O)ccc2S(=O)(=O)N([C@@H](C)CO)C[C@H]1C | inactive: -0.017% [at 42 µM] |
| C[C@@H]1CN([C@@H](C)CO)C(=O)c2cc(Br)cnc2O[C@H]1CN(C)C(=O)C1CC1 | inactive: -0.055% |
| Cc1nc2cc(C(=O)NCc3ccc4c(c3)OCO4)ccc2n1-c1ccc(Br)cc1 | inactive: 0.351% |
| COc1cc(NC(=O)c2cccs2)c(OC)cc1NC(=O)Nc1ccc(F)cc1 | inactive: 0.771% |
| CO[C@@H]1CN(C)C(=O)c2ccc(NC(C)=O)cc2OC[C@@H](C)N(C(=O)Cc2ccccn2)C[C@H]1C | inactive: -0.462% [at 42 µM] |
| Cc1cc(C)cc(N(CC(=O)NC2CCC(C)CC2)S(=O)(=O)c2c(C)noc2C)c1 (configuration not stated) | inactive: -0.238% |
| CCOc1ccc(C(=O)CCC(=O)Nc2ccc(C)cn2)cc1 | inactive: 0.045% |
| Cc1ccc(S(=O)(=O)N2C[C@]3(O)C[C@@H]4C(=O)N(c5ccccc5)C(=O)[C@@H]4C[C@]3(OC(=O)NCC3CCCCC3)C2)cc1 | inactive: -0.138% |
| CC(C)c1ccc(NC2CCCN(C(=O)c3cc(C(C)C)[nH]n3)C2)cc1 (configuration not stated) | inactive: -0.278% |
| COc1ccc(NS(=O)(=O)c2cc(N=Nc3c(O)[nH]c(=O)[nH]c3=O)ccc2Cl)cc1 | inactive: -0.202% |
| CCOC(=O)C1CCC(CNCc2ccccc2C)CC1 (configuration not stated) | inactive: 0.003% |
| Cc1cc(C(=O)Nc2cccc3ccccc23)n(-c2ccccc2)n1 | inactive: -0.131% |
| COCC(=O)N1CC2(C1)[C@H](c1ccccc1)[C@@H](CO)N2C(=O)NC1CCCC1 | inactive: 0.301% |
| CNC(=O)C[C@H]1CC[C@@H]2[C@H](COc3ccc(NC(=O)c4ccccc4OC)cc3C(=O)N2C)O1 | inactive: -0.067% |
| CCCN(CCC)CC(C)(C)NS(=O)(=O)c1ccc(Cl)cc1 | inactive: 0.103% |

| SMILES | Tm shift activity |
| --- | --- |
| CC(=O)c1ccc(NS(=O)(=O)c2ccc(N)cc2)cc1 | inactive: -0.172% |
| O=Cc1cc(N=Nc2cccc(C(=O)O)c2)ccc1O | inactive: 0.763% |
| CC(C)C#Cc1cnc2c(c1)C(=O)N([C@H](C)CO)C[C@H](C)[C@H](CN(C)C(=O)c1cnccn1)O2 | inactive: -0.112% [at 42 µM] |
| O=C(N/N=C/c1cccc(O)c1)c1cc(-c2ccc3c(c2)OCO3)n[nH]1 | inactive: 0.613% |
| COc1ccc(NC(=O)CN(c2ccc(C(C)C)cc2)S(=O)(=O)c2c(C)noc2C)cc1OC | inactive: -0.176% |
| CCCN(C)C[C@H]1Oc2cc(C#Cc3ccc(F)cc3)ccc2S(=O)(=O)N([C@H](C)CO)C[C@@H]1C | inactive: 0.464% |
| CCc1ccc(NC(=O)c2ccc(-n3cncn3)c([N+](=O)[O-])c2)cc1 | inactive: 0.367% |
| C[C@@H]1CN([C@@H](C)CO)C(=O)c2cc(NC(=O)Cc3cn(C)c4ccccc34)ccc2O[C@H]1CN(C)S(C)(=O)=O | inactive: -1.54% [at 42 µM] |
| CN1CCN(C(=O)C[C@@H]2CC[C@H]3[C@@H](COC[C@H](O)CN3CC3CCCCC3)O2)CC1 | inactive: 0.165% |
| CCNC(=O)C1(C)CCN(Cc2ccc(OC(F)(F)F)cc2)C1 (configuration not stated) | inactive: -0.221% |
| O=C(C(=O)N1CCN(C/C=C/c2ccccc2)CC1)c1ccccc1 | inactive: -0.145% |
| COc1ccc(NC(=O)/C=C/C(=O)O)c([N+](=O)[O-])c1 | inactive: 0.044% |
| Cc1ccc(S(=O)(=O)N(C)c2ccc(OC(=O)COc3ccccc3)cc2)cc1 | inactive: 0.646% |
| Cc1ccc2c(c1)c(CC(=O)Nc1ccc(C)c(F)c1)c(C(=O)O)n2C | inactive: 0.048% |
| CC(C)(C)[S@](=O)N1Cc2cc(C(=O)N[C@@H]3CCN(Cc4ccccc4)C3)nc(-c3cccc(-c4cccnc4)c3)c2[C@@H]1CCO | inactive: 0.169% [at 42 µM] |
| CC(C)Oc1ccc(C(=O)NC2CCN(Cc3ccccc3)CC2)cc1 | inactive: 0.066% |
| COc1ccc(/C=N/NC(=O)c2cccc([N+](=O)[O-])c2)cc1OC | inactive: 0.04% |
| C[C@@H]1CN([C@H](C)CO)C(=O)Cc2cc(NC(=O)C3CC3)ccc2O[C@H]1CN(C)S(=O)(=O)c1cn(C)cn1 | inactive: -0.141% |
| COc1ccccc1NS(=O)(=O)c1cccc(NC(=O)c2cc3ccccc3oc2=O)c1 | inactive: -0.019% |
| Cc1cccc(S(=O)(=O)N2CCCCN3[C@@H](CO)[C@@H](c4ccc(C#C[C@H](C)O)cc4)[C@@H]3C2)c1 | inactive: -0.175% [at 42 µM] |
| COc1ccc(S(=O)(=O)Nc2ccc3c(c2)C(=O)N([C@H](C)CO)C[C@H](C)[C@H](CN(C)CC2CC2)OCCCC[C@H](C)O3)cc1 | inactive: -0.346% |
| CS(=O)(=O)N1CC2(C1)[C@@H](c1ccccc1)[C@@H](CO)N2Cc1ccc(F)cc1 | inactive: -0.945% [at 42 µM] |
| COC(=O)C(C)Oc1cc(OC(C)C(=O)OC)c2c(C)c(Cl)c(=O)oc2c1 (configuration not stated) | inactive: -0.283% |
| COc1ccc(CCC(C)NC(=O)Cc2ccc(OC)c(OC)c2)c(OC)c1 (configuration not stated) | inactive: -0.077% |
